Whole data set: some 4,100 sequences, median “relative CpG methylation activity (normalised to average over all NNNCGNNN flanks)” near 0.87, cut for the highest 2% near 2.4. This is one part of the list.
These sequences were tested against DNMT3A catalytic domain (mouse) (UniProt O88508) (assay: relative CpG methylation activity (normalised to average over all NNNCGNNN flanks) (relative (1 = mean)); higher = more methylation of the central CpG). Details: system: in vitro, murine catalytic domain; CpG state: hemimethylated substrate pool; residues: 608-908.
Method: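 Deep enzymology: a pool of dsDNA substrates with a central CpG flanked by 10 random nucleotides on each side was methylated by the murine DNMT3A or DNMT3B catalytic domain (0.8 mM SAM, 37 °C, 60 min). Methylation was then read out by hairpin ligation, bisulfite conversion and NGS. Values are the average methylation of each NNNCGNNN context (±3 flanks; the outer flanks are random and averaged over), normalised to the overall mean, so 1 = average activity.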

Row | Sequence | relative CpG methylation activity
1 | TACCGGGG | 0.301
2 | AATCGGTC | 0.38
3 | GATCGGTG | 0.139
4 | ACCCGTTA | 1.12
5 | CCTCGCTA | 1.65
6 | AAGCGCTG | 0.789
7 | GTTCGTCG | 1.19
8 | GGACGGAG | 0.703
9 | CTCCGCCT | 2.45
10 | GTCCGGCT | 1.47
11 | TCCCGGCT | 0.955
12 | GTCCGCAA | 1.6
13 | TTTCGAGG | 0.481
14 | TTACGATA | 1.9
15 | TCACGATG | 0.606
16 | TTGCGCGG | 0.8
17 | ATGCGCCG | 2.39
18 | ATGCGCTC | 2.02
19 | TCGCGGTA | 0.918
20 | CATCGTCC | 1.28
21 | CACCGCGC | 0.78
22 | TCCCGCGT | 0.745
23 | TTTCGTCG | 1.44
24 | TATCGTTG | 0.26
25 | GGGCGGCA | 0.323

Row | Sequence | relative CpG methylation activity
26 | AGGCGATC | 1.05
27 | CCCCGCAG | 0.612
28 | ACACGAGG | 0.735
29 | TGGCGGCT | 0.294
30 | AGTCGGGC | 0.438
31 | GGCCGTCA | 1.15
32 | CGGCGTAT | 0.347
33 | CTTCGTGA | 0.6
34 | ACCCGGCT | 1.51
35 | ATGCGTGT | 0.505
36 | CACCGCTC | 1.78
37 | CCACGGGG | 0.822
38 | ACTCGTGG | 0.361
39 | TTACGTAG | 1.34
40 | ACACGCGA | 1.22
41 | TAACGTAA | 0.985
42 | GTGCGTCA | 1.88
43 | AAACGGTT | 0.308
44 | GCTCGACG | 0.796
45 | TTCCGCTA | 2.3
46 | AAACGAAT | 0.506
47 | GTGCGGTC | 1.39
48 | AAACGTAA | 0.891
49 | GGTCGCTC | 1.34
50 | ATACGCTT | 2.67

Row | Sequence | relative CpG methylation activity
51 | TAACGGAC | 0.971
52 | CCACGGCT | 1.26
53 | AGACGGAA | 0.645
54 | ATTCGGGC | 0.787
55 | TCACGTTA | 1.39
56 | GCGCGGAC | 1.13
57 | CTGCGGTC | 1.6
58 | TGACGCCC | 1.33
59 | ACTCGCTT | 1.97
60 | GGTCGGCT | 0.702
61 | TTACGGTA | 1.48
62 | TGCCGATG | 0.451
63 | GTGCGAGA | 1.33
64 | AGCCGCGT | 0.641
65 | ATGCGGTG | 0.407
66 | CAACGTAT | 0.658
67 | GTCCGTCA | 2.41
68 | GACCGAGC | 1.78
69 | TGTCGGTG | 0.463
70 | TCACGAGT | 1.2
71 | CAGCGTTC | 0.639
72 | AATCGTAC | 0.254
73 | GACCGACA | 1.18
74 | AATCGACG | 0.266
75 | TGACGAGT | 0.36

Row | Sequence | relative CpG methylation activity
76 | ATTCGAAA | 1.06
77 | CCGCGGTG | 0.183
78 | GAACGGCT | 0.892
79 | TCGCGCCG | 1.28
80 | CAACGACT | 0.595
81 | GATCGAAT | 0.216
82 | TCCCGGGT | 0.556
83 | TAGCGTTG | 0.321
84 | CGACGACA | 0.666
85 | TTACGAGG | 1.2
86 | GTGCGTGC | 1.11
87 | CCTCGAGG | 0.427
88 | CTCCGCAA | 1.65
89 | CAACGGGA | 0.628
90 | TCGCGAAA | 0.693
91 | AGACGAGC | 0.966
92 | CTGCGCTA | 1.62
93 | ACACGATC | 1.78
94 | TTTCGCTA | 1.59
95 | GAGCGACA | 0.685
96 | GCCCGCCC | 2.25
97 | CCCCGTCG | 2.05
98 | ACTCGCTG | 1.34
99 | TGCCGCCG | 1.03
100 | GTCCGGAC | 1.77

Row | Sequence | relative CpG methylation activity
101 | TCCCGTGT | 0.354
102 | GAGCGCAC | 1.05
103 | TGCCGCCA | 1.17
104 | CACCGGCT | 0.844
105 | TTGCGGTC | 1.43
106 | TGACGGAT | 0.512
107 | TTCCGCGG | 0.968
108 | ACGCGAGC | 1.45
109 | TATCGATT | 0.515
110 | AGGCGCCT | 1.88
111 | CTTCGAGG | 0.462
112 | AGACGTCC | 1.39
113 | CACCGGGG | 0.35
114 | AGCCGTCG | 1.08
115 | CATCGCTT | 1.58
116 | ATCCGAAC | 2.23
117 | TCTCGCGG | 0.465
118 | CTTCGGTG | 0.51
119 | AGCCGAAT | 0.558
120 | GAGCGGCG | 0.455
121 | GCACGTGT | 0.543
122 | CTGCGTAA | 1.61
123 | CACCGGAT | 0.404
124 | CAACGCTT | 1.27
125 | TATCGACC | 0.711

Row | Sequence | relative CpG methylation activity
126 | TTGCGCCA | 1.75
127 | AGACGAGT | 0.755
128 | ATTCGTAG | 0.732
129 | AACCGAGA | 1.03
130 | TTCCGCTT | 2.48
131 | TGTCGATT | 0.505
132 | TATCGGTT | 0.38
133 | CTACGAGA | 1.72
134 | CAGCGGGC | 0.44
135 | CAACGGCT | 0.858
136 | AGGCGCCA | 1.26
137 | GACCGGGA | 0.644
138 | GAACGGTG | 0.556
139 | CGGCGCCA | 1.14
140 | CCTCGCTG | 1.27
141 | GCCCGGTC | 0.978
142 | CGCCGACT | 0.572
143 | TACCGGGA | 0.417
144 | TCCCGTTA | 0.954
145 | GAGCGAAT | 0.424
146 | TCTCGCCG | 1.58
147 | AATCGCGC | 0.546
148 | GTACGGCG | 1
149 | CGGCGGCT | 0.439
150 | AAACGAAA | 0.559

Row | Sequence | relative CpG methylation activity
151 | GCTCGCCT | 2.09
152 | TGACGCCA | 0.932
153 | GGGCGGAT | 0.435
154 | GGTCGGCC | 0.793
155 | TACCGCCA | 1.18
156 | AAGCGAAG | 0.346
157 | AGGCGTCC | 1.54
158 | GTGCGGCC | 2.06
159 | TACCGGAG | 0.326
160 | GAGCGCTA | 0.62
161 | GACCGTCC | 1.32
162 | ATGCGAGT | 1.3
163 | GATCGAAG | 0.281
164 | TATCGTCG | 1.29
165 | GATCGCTT | 0.75
166 | CCACGCGG | 0.503
167 | ATTCGACC | 0.952
168 | CGCCGAAC | 1.36
169 | TTTCGGCA | 0.864
170 | ATGCGTAC | 1.4
171 | CAGCGAGG | 0.287
172 | AAACGATT | 0.362
